Experimental data as given in the supplement of paper PMC10126150.
Sequences with one replicate were seen in a single cluster, so their values are uncertain.

Tested on: ATP
Assay: switch fluorescence ratio, 500 uM ATP over buffer (Cy3 cluster intensity, sum of 5 cycles each) (fold (ratio)); higher = stronger signal-on switching upon ATP binding; sequences stand for … in TCGTCGGCAGCGTCAGATGTGTATAAGAGACAGTTTTTTTTTTTTTTTTTTTTTTTTT…TC
Details: aptamer strand: ATP DNA aptamer (quencher-CACCTGGGGGAGTATTGCGGAGGAAGG + anchor), 100 nM annealed; ATP concentration: 500 uM; one replicate
Procedure, shortened: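 Between each of five buffer/ATP cycles, the flow-cell was stripped with NaOH and re-annealed. Each cycle imaged Cy3-labelled switching-strand clusters, annealed to 100 nM quencher-labelled ATP aptamer on a modified Illumina MiSeq flow-cell, first in selection buffer and then after 15 min with 500 uM ATP at 22 °C. The fluorescence ratio is summed target-cycle over summed buffer-cycle Cy3 intensity per cluster, averaged per switch-domain sequence, with clusters outside 100-1000 RFU excluded.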
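Note: ATP exposure 15 min at 22 °C before imaging.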

Sequence | switch fluorescence ratio
ATCAACTCAG | 1.03
ACTGACGGGG | 1.14
TCTTTGACA | 1.06
CGTCTTGGGG | 0.977
TGCGAGAGGC | 0.986
CGTAGACTCC | 2.07
CTCTAACCTG | 1.07
ATTGGGTTAA | 1.01
TATAGCCATT | 1.01
AAATTGTGT | 0.969
GCTCCCTATA | 2.27
TGGCTGCACC | 1.05
TGGCAGTTGA | 1.03
GTTCCGTCCG | 1.05
GAGGCAGAAG | 1.09
TGGTCGTAGG | 0.966
CGGCATATGT | 0.999
TGAGGCTAGC | 0.999
GGCCGGTGTG | 1.02
ACAATATATT | 1.04
GCCTGTCCTT | 0.994
TCGTAATTTG | 0.997
CCAAATCCAG | 1
GCCGGGTTT | 0.946
TTTGAGATCG | 0.986

Sequence | switch fluorescence ratio
ATACTAAGAT | 1.03
GTGCGTGGGT | 1.02
AATCTCCGGG | 1.1
CGTCCTTTGC | 0.98
GCGATCGTCG | 0.96
ATAGCTCTGC | 1.04
ATTGGCAGCA | 1
CAAGGAAACC | 1.04
CAGGAGGTAT | 1.06
TAAGGTGAC | 1.12
CCGTCACCGT | 1.11
ATACCTGCTC | 1.35
GCGAGTAGTT | 0.973
GGGTCCGAAG | 0.99
ACGGATACAA | 1.11
ATTAAAGAGA | 0.936
TCAGAGAAGG | 0.995
TGGCTTATGG | 0.948
ATGAGTTT | 0.953
TACGCTCTGG | 1.02
AATGGAAGA | 0.996
AGGTGTCGCC | 1.01
GGAATTGGCA | 0.964
GGTGGAGTCA | 0.972
TGACAGAACA | 1.09

Sequence | switch fluorescence ratio
TAGATGGTTC | 1.01
CCATAGTACT | 1.18
TCCTTTTGAA | 0.993
TTGTGTCACA | 1.03
TTGAGTCT | 0.964
GAGATACTTT | 1
TCAAGGTAAG | 1.01
GATATGATGA | 1.03
GCCGTGTAGC | 1.05
TGTCATATC | 1.06
CGTGCTTGCT | 1.01
CAGTACTAGC | 1
TAAGCTTCGT | 0.999
GGATATAGA | 1.03
CGTTGAAG | 0.958
CACTTAGCTG | 1.06
CGTCGGTCTC | 0.993
TTTAGTGGAG | 1.02
TGGGCCATCG | 1.02
TAATATTGTG | 1.01
ATCAAAGTTG | 0.997
TCATACAC | 1.12
TGAAACAATA | 1.02
TTGGTCCTCT | 0.991
TAGGAACGCC | 0.972

Sequence | switch fluorescence ratio
ACTGGTGCG | 0.96
TGCAAACTCA | 1.55
TCCTAAATTC | 1.07
GCGGTTAGGT | 0.955
CGTCCCCTT | 3.29
GTCGGGAGAC | 1.44
CTGACCAGTT | 1
AATTACGCGG | 1.06
CTTAATGTGT | 1
GGGGCGAAGC | 1.18
GCCTTTTTC | 1.06
GATTCGTCTT | 0.972
TCGGGACGTG | 0.932
AGGTCGGAT | 1.07
CATACCGGAT | 1.06
AGGTTAGCGC | 0.924
ATCATTAAAA | 0.914
ATACTGCCAC | 1.38
TTTGGTATCC | 1.05
AAGTTTTTT | 1
TGGCCTGCTT | 0.974
GCACGAAGAC | 4.51
AGGAGTACAG | 0.961
TGTTGAATCG | 1.01
GTACTAGGAA | 0.994
